This is an account of results in article PMC4336329 (PLoS ONE, 2015).

In all, about 310,000 compounds went through this assay and about 2,200 (0.71%) showed an effect of 50% or more. Effects have a minus sign here. The list shows a part of the results.

human ether-à-go-go-related gene (hERG) potassium channel, sequence (Q12809 whole entry, looked up): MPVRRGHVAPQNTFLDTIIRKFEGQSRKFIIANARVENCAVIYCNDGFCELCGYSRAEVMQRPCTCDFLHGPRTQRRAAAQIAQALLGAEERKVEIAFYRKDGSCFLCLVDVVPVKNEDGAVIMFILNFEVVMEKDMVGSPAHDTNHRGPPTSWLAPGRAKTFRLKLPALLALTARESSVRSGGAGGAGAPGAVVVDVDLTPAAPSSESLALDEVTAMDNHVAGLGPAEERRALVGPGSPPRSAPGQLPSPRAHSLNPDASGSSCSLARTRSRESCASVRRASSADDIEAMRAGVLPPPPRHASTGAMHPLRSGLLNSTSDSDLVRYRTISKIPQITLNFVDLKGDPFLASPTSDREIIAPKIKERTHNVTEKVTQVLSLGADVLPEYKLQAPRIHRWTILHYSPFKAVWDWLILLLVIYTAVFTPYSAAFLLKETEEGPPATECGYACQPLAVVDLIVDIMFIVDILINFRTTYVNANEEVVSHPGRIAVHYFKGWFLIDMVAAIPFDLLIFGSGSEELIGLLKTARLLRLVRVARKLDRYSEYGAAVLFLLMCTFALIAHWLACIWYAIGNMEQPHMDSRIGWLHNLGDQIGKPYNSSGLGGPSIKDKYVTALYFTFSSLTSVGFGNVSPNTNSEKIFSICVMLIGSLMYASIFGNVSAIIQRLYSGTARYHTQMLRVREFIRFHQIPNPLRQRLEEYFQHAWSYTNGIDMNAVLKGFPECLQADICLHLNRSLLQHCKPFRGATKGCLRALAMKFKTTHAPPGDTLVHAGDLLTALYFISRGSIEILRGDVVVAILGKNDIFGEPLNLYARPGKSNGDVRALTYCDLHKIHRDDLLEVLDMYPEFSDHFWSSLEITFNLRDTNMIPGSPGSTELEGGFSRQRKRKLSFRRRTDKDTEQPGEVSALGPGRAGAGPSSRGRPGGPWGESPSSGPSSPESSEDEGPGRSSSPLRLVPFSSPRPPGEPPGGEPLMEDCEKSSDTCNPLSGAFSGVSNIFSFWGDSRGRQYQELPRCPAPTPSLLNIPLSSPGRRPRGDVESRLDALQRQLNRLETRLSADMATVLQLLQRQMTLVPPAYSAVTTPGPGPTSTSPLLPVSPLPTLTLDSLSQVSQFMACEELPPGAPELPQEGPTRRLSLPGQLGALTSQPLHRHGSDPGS

This assay concerns the target human ether-à-go-go-related gene (hERG) potassium channel (human, UniProt Q12809). Put plainly: primary screen, population patch clamp on CHO cells stably expressing hERG.
Consider `COc1ccc(S(=O)(=O)N(C)CC(=O)NCc2cccnc2)cc1`, for which the “hERG current change (%, negative = inhibition) at 1uM” value was 0.722%. As for `CCc1[nH]nc2c1C(c1ccsc1)C(C#N)=C(N)O2` (stereo not shown), the “hERG current change (%, negative = inhibition) at 1uM” value was 12.5%. For `O=C(NCc1ccc2c(c1)OCO2)C1CCN(S(=O)(=O)c2cccc3nsnc23)CC1` the value was 11.8%. The result for `COc1ccc([N+](=O)[O-])cc1NC(=O)C(C)Sc1nc(C)c(C)c(C)n1` (stereo not shown) reads 10.2%. For `O=C(Cn1cc(C(F)(F)F)cc(Cl)c1=O)NCCc1ccc(Cl)cc1Cl` the value was 6.7%; for `COc1cccc(C2=NOC(C(=O)Nc3c(C)n(C)n(-c4ccccc4)c3=O)C2)c1` (stereo not shown), 6.58%. In the case of `Cc1c(NC(=O)C(C)OC(=O)CCOc2ccccc2)c(=O)n(-c2ccccc2)n1C` (stereo not shown), the “hERG current change (%, negative = inhibition) at 1uM” value was 17.3%.

For `Cc1ccc(/C=C/C(=O)c2nc3ccccc3[nH]2)cc1`, the “hERG current change (%, negative = inhibition) at 1uM” value came to 4.5%. For `COc1cccc(C(=O)/C(C#N)=N/Nc2cccc(-c3ccnc(C)n3)c2)c1` the value was 3.97%. The result for `Cc1c(C)c2ccc(OCC(=O)NCCN3CCOCC3)c(C)c2oc1=O` reads 8.66%; that for `CCCn1c(=O)c2ccccc2n2c(SCC(=O)c3ccccc3)nnc12`, -2.83%.

With `O=C1OC(Nc2ccccn2)c2ccccc21` (stereo not shown), the “hERG current change (%, negative = inhibition) at 1uM” value was -7.6%. The result for `O=C(/C=N\O)NCCCNCc1ccccc1` reads -2.55%; that for `CC1(C)CC(=O)C(c2c[nH]c3ccccc23)C(=O)C1`, 13.5%; that for `CC(C)CCSc1nc(N2CCOCC2)c2c(c1C#N)CC(C)(C)OC2`, 5.79%. Consider `CCOC(=O)CNC(=S)N(Cc1cccs1)C1CCCC1`, for which the “hERG current change (%, negative = inhibition) at 1uM” value came out at 13.7%.

In the case of `O=C(Cn1ccc(NC(=O)OCc2ccccc2)nc1=O)NCc1ccccn1`, the “hERG current change (%, negative = inhibition) at 1uM” value is -6.25%. For `COc1cccc(N(C(=O)c2cnccn2)C(C(=O)NC2CCCCC2)c2ccc(Cl)cc2)c1` (stereo not shown) the value was 7.27%; for `NC(=O)c1ccc(-n2nnnc2Oc2ccc(Br)cc2)cc1`, 9.36%; for `CCN(C(=O)Cc1nc(N)n[nH]1)C1(C(=O)Nc2ccccc2)CCCCC1`, 9.75%.

For the compound `CCc1nc(N2CCN(S(C)(=O)=O)CC2)c2c3c(sc2n1)CCCC3`, the “hERG current change (%, negative = inhibition) at 1uM” value was 8.37%. The result for `O=C(SCC(O)C(O)CS)c1cccs1` (stereo not shown) reads 1.67%; that for `CNc1oc(C)nc1S(=O)(=O)c1ccccc1`, 10.4%.

For `CCOC(=O)N1CCN(C(=S)Nc2ccc3nc(N4CCN(CC)CC4)cc(C)c3c2)CC1`, the “hERG current change (%, negative = inhibition) at 1uM” value is given as 2.94%.

With `Clc1cccc(OCCCCN2CCCCC2)c1`, the “hERG current change (%, negative = inhibition) at 1uM” value is -4.66%.
